# From PubChem BioAssay AID1768 (National Center for Advancing Translational Sciences (NCATS), 2009)
# The whole screen tested about 270,000 compounds, of which about 620 (0.23%) were called active. The shares of active, inactive and inconclusive entries below differ from those in the screen. Calls follow the shape of the dose curve; as a rule, active = well fitted inhibition curve with a large enough effect in the polarisation, with a control signal flat (not every such curve was filed as active); inconclusive = small, poorly fitted or top-dose-only effect, or effect the other way, or a change in a side signal; inactive = no such curve, though single readings can be large or run the other way; the % refers to the polarisation. A potency beside an inconclusive call is a rough fit, not a confirmed value. “Side channel” marks fits to a control or component signal instead of the main read-out.
# Target: Menin (Homo sapiens) (UniProt O00255)
# Experiment: qHTS Assay for Inhibitors Targeting the Menin-MLL Interaction in MLL Related Leukemias: Competition With Texas Red Labeled MLL-derived Mutant Peptide
# Settings: fluorescence polarization; series mostly up to 61.6 µM
# Potency is read from the fitted curve at half-maximal effect; tags tell the direction and shape of the fitted curve or compound fluorescence and quenching.
# UniProt O00255, sequence (O00255 whole entry, looked up): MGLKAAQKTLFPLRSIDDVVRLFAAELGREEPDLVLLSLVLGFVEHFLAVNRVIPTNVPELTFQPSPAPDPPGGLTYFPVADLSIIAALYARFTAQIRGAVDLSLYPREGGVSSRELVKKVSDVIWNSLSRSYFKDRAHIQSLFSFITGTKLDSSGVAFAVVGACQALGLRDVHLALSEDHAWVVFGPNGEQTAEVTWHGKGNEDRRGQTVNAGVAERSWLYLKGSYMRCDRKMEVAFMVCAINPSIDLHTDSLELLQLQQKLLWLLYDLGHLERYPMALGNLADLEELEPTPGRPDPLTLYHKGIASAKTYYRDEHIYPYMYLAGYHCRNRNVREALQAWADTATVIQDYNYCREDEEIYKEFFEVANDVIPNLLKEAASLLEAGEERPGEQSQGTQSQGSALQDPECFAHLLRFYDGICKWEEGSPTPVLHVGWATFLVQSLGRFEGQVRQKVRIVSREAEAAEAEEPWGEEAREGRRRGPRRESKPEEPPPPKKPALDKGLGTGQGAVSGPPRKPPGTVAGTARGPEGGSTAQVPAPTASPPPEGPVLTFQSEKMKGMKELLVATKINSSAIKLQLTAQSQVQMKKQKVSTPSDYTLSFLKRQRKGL
row,Compound,Potency
1,Cc1ccc(C(=O)NCCOc2cccc3cccnc23)cc1Cl,"inconclusive: 31.6 µM [inhibitor, partial curve]"
2,O=C1CSC(c2ccccc2)N1Nc1nc(N2CCOCC2)nc(N2CCOCC2)n1 (centres undefined),"inconclusive: 20 µM [fluorescent, side channel, single point]"
3,Nc1ccc(C(=O)N/N=C/c2cn(Cc3cccc(F)c3)c3ccccc23)cc1,"inconclusive: 2.82 µM [quencher, side channel, full curve]"
4,COc1ccc(OC)c2sc(NC(=O)CCSc3ccccc3)nc12,"inconclusive: 3.16 µM [quencher, side channel, full curve]"
5,COc1ccc(CNc2cccc3[nH]c(C(F)(F)F)nc23)cc1,"inconclusive: 25.1 µM [quencher, partial curve]"
6,CCCCC(=O)Oc1c(S(=O)(=O)c2ccc(C)cc2)c(C)nn1C(C)(C)C,"inconclusive: 14.1 µM [inhibitor, partial curve]"
7,CCn1c2ccccc2c2cc(NC(=O)c3ccc([N+](=O)[O-])cc3)ccc21,"inconclusive: 8.91 µM [quencher, side channel, partial curve]"
8,O=C(Nc1ccc(CN2CCOCC2)cc1)c1ccc(Br)o1,"inconclusive: 39.8 µM [inhibitor, single point]"
9,N#C/C(=C/c1ccc(-c2cc(C(=O)O)cc(C(=O)O)c2)o1)c1nc2ccccc2s1,"inconclusive: 5.62 µM [quencher, side channel, partial curve]"
10,COc1cc(CNc2ncc(-c3ccc(Br)cc3)n2C)cc(OC)c1OC,"inconclusive: 22.4 µM [inhibitor, partial curve]"
11,Nc1ccc(Cc2ccc(N)c(O)c2)cc1O,"inconclusive: 10 µM [quencher, partial curve]"
12,N#C/C(=C\c1ccc(O)c(O)c1)C(=O)OCCc1cccs1,"inconclusive: 35.5 µM [quencher, side channel, partial curve]"
13,O=[N+]([O-])c1ccc2[nH]c(O)c(N=Nc3ccc(F)cc3)c2c1,"inconclusive: 14.1 µM [quencher, side channel, partial curve]"
14,C(C#CCCCCCCCCC[n+]1ccccc1)#CCCCCCCCCC[n+]1ccccc1,active: 31.6 µM
15,Oc1ccc(-c2nnc(-c3ccc(O)cc3)nn2)cc1,"inconclusive: 31.6 µM [quencher, side channel, single point]"
16,COc1ccc(CCn2c(N)c(C(=O)NCc3ccco3)c3nc4ccccc4nc32)cc1,"inconclusive: 39.8 µM [quencher, side channel, single point]"
17,COc1ccc2[nH]cc(CCNc3ncnc4ccc(-c5ccccc5CN(C)C)cc34)c2c1,"inconclusive: 39.8 µM [inhibitor, partial curve]"
18,CC(C)CN1C(=O)c2ccc(NC(=O)c3ccco3)cc2C1=O,"inconclusive: 15.8 µM [quencher, side channel, partial curve]"
19,O=C(O)c1ccc(NC(=O)c2cn(-c3ccccc3)nc2-c2ccc(F)cc2)cc1,"inconclusive: 20 µM [quencher, side channel, partial curve]"
20,O=C(Cc1ccccc1)Nc1ccc(N2CCOCC2)cc1N1CCOCC1,"inconclusive: 39.8 µM [inhibitor, single point]"

row,Compound,Potency
1,O=C(CN1CCCCCC1)Nc1ccc(F)c(F)c1,inactive
2,O=C(/C=C/c1ccco1)NCC(=O)N/N=C/c1ccc(Cl)cc1,inactive
3,N#Cc1c(-c2ccc(F)cc2)cc(-c2cccnc2)nc1N,inactive
4,COc1ccc(C(=O)N/C(=C\c2cccc([N+](=O)[O-])c2)C(=O)Nc2cccc(C(=O)O)c2)cc1,"inconclusive: 28.2 µM [quencher, side channel, single point]"
5,CCn1ncc(C2=NOC(C(=O)NCc3ccccc3)C2)c1C (centres undefined),"inconclusive: 15.8 µM [inhibitor, partial curve]"
6,CCC1CCCCN1CCCNC(=O)CN1C(=O)CSc2ccc(S(=O)(=O)N3CCC(C)CC3)cc21 (centres undefined),"inconclusive: 6.31 µM [inhibitor, partial curve]"
7,O=C(Oc1c(CN2CCOCC2)cc(Cl)c2cccnc12)c1ccccc1,inactive
8,O=C(N/N=C/c1c(O)ccc2ccccc12)c1ccc(CO)nc1,"inconclusive: 20 µM [quencher, side channel, partial curve]"
9,CN(C)CCNc1ccc(-c2n[nH]c(=O)c3ccccc23)cc1[N+](=O)[O-],"inconclusive: 8.91 µM [inhibitor, partial curve]"
10,COc1ccc(OC)c(/C=N/n2c(COc3ccccc3)n[nH]c2=S)c1,"inconclusive: 39.8 µM [fluorescent, side channel, single point]"
11,Clc1ccc2c(N/N=C/c3ccc(Br)cc3)ccnc2c1,"inconclusive: 5.62 µM [quencher, side channel, partial curve]"
12,O=C(C1CCC(=O)N(C2CCCCCC2)C1)N1CCN(c2ccccc2Cl)CC1 (centres undefined),"inconclusive: 7.08 µM [fluorescent, side channel, partial curve]"
13,Cc1[nH]c2ccccc2c1/C=N/Nc1nc(N2CCCCC2)nc(N2CCCCC2)n1,"inconclusive: 11.2 µM [quencher, side channel, partial curve]"
14,CCCC(O)(c1ccc(Cl)cc1)C(CN1CCOCC1)c1ccc(Cl)cc1 (centres undefined),"inconclusive: 14.1 µM [fluorescent, side channel, partial curve]"
15,COc1cccc(C(=O)Nc2nnc(S(=O)(=O)Nc3cccc(C)c3)s2)c1,"inconclusive: 22.4 µM [quencher, side channel, single point]"
16,O=C(Cc1cccc2ccccc12)Nc1ccc(N2CCOCC2)cc1,"inconclusive: 25.1 µM [quencher, side channel, partial curve]"
17,CCN1C=C(Cc2ccc(OC)cc2)C2=C(C1)C(c1ccc(OC)cc1)C(C#N)=C(N)O2 (centres undefined),"inconclusive: 7.94 µM [fluorescent, side channel, partial curve]"
18,COc1cc(/C=C/C(=O)OCC(=O)NCCc2ccccc2)cc(OC)c1OC,"inconclusive: 31.6 µM [fluorescent, side channel, single point]"
19,COc1cc(/C=C/C(=O)Nc2ccc3[nH]c(=O)[nH]c3c2)cc(OC)c1OC,"inconclusive: 5.62 µM [quencher, side channel, partial curve]"
20,S=C(NCc1ccccc1)NCc1ccc(CNC(=S)NCc2ccccc2)cc1,"inconclusive: 2.24 µM [quencher, side channel, full curve]"

row,Compound,Potency
1,COc1ccccc1CNC(=O)c1ccc2ccccc2n1,"inconclusive: 7.94 µM [quencher, side channel, full curve]"
2,CCOc1nc(-c2ccccc2)ccc1-c1noc(-c2ccncc2)n1,"inconclusive: 35.5 µM [inhibitor, single point]"
3,COc1ccccc1CN1CC[C@@]2(CCCN(C(=O)c3cccn3C)C2)C1,inactive
4,COC(=O)c1ccc(C)c(NC(=O)CN(c2ccccc2)S(=O)(=O)N(C)C)c1,"inconclusive: 12.6 µM [inhibitor, partial curve]"
5,COc1cc([N+](=O)[O-])cc(/C=N/NC(=O)C(C)Nc2cccc(C)c2)c1O (centres undefined),"inconclusive: 31.6 µM [quencher, side channel, single point]"
6,S=C(Nc1cccc(Br)c1)N1CCn2cccc2C1c1cccnc1 (centres undefined),"inconclusive: 17.8 µM [quencher, side channel, partial curve]"
7,Cc1cc2c(c(=O)o1)C(c1cccs1)C(C#N)=C(N)O2 (centres undefined),"inconclusive: 20 µM [inhibitor, partial curve]"
8,CNc1nc(-c2c(C)[nH]c3ccc(OC)cc23)cs1,"inconclusive: 17.8 µM [quencher, side channel, partial curve]"
9,Cc1ccc(-c2nnc(-c3ccc(Br)cc3)o2)o1,inactive
10,CN1C(=O)CC[C@@H]1c1cccnc1,inactive
11,CC(=O)c1sc(NC(=O)c2ccc(C)c(C)c2)nc1C,"inconclusive: 39.8 µM [inhibitor, single point]"
12,CCn1c(=O)c(C(=O)NNC(=O)c2ccc(Cl)cc2Cl)c(O)c2ccccc21,"inconclusive: 35.5 µM [inhibitor, single point]"
13,COc1cccc(OC)c1C1=Nn2c(nnc2-c2ccccc2C)SC1,inactive
14,CN(CC(=O)Nc1ccc(F)c(Cl)c1)S(=O)(=O)c1cccc2nsnc12,"inconclusive: 28.2 µM [quencher, side channel, single point]"
15,CS(=O)(=O)N1CCN(c2ccc([N+](=O)[O-])c(SCc3ccco3)c2)CC1,"inconclusive: 3.55 µM [quencher, side channel, full curve]"
16,N/C(=N\OC(=O)CCC1CCCC1)c1ccc([N+](=O)[O-])cc1,"inconclusive: 28.2 µM [inhibitor, partial curve]"
17,CCn1c(/C=C/N(C)c2ccccc2)[n+](CC)c2ccc(Cl)cc21,"inconclusive: 8.91 µM [inhibitor, full curve, poor fit]"
18,COc1ccc(F)cc1C(=O)C1CCCN(Cc2cnc(N3CCCC3)s2)C1 (centres undefined),"inconclusive: 7.94 µM [inhibitor, partial curve]"
19,COc1ccc2nc(NC(=O)Nc3cccc4ccccc34)sc2c1,"inconclusive: 8.91 µM [quencher, side channel, full curve]"
